# Source: PubChem BioAssay AID504706 (National Center for Advancing Translational Sciences (NCATS), 2011)
# Hit rate of the full screen: of about 320,000 compounds, about 200 (0.062%) were called active. Inconclusive means that the source gave no clear call. Such entries were picked first, then a sample of the others. Calls come from the whole dose curve; as a rule, active = well fitted activation curve with a large enough effect; inconclusive = small, poorly fitted or top-dose-only effect; inactive = no such curve, though single readings can be large or run the other way. Potencies of inconclusive entries are left out as doubtful fits.
# Assay: qHTS assay for re-activators of p53 using a Luc reporter; note: nearly all actives have a fitted effect of over 45% in size
# Conditions: H1299 p53-A138V BP100-luciferase reporter, luminescence, 24 h; series mostly up to 92.2 µM
# Procedure, shortened: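 p53-null H1299 cells stably carrying temperature-sensitive p53-A138V and a BP100-luciferase reporter were pinned with compounds (4-point, 1:5 series) and held 24 hrs at 37 deg C. Luminescence was read 10 min after detection reagent.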
# Potency is the fitted concentration of half-maximal effect; tags give direction and shape of the fitted curve.
row,Structure (SMILES),Potency
1,CSc1nc2sc3c(c2c(=S)[nH]1)CC(C)(C)OC3,inactive
2,c1ccc(Nc2nc(-c3cccnc3)cs2)nc1,"inconclusive [activator, full curve, poor fit]"
3,CCc1ccc(NC(=O)c2noc(C(C)C)c2[N+](=O)[O-])cc1,"inconclusive [activator, partial curve, poor fit]"
4,CC1CCC(NC(=O)c2ccc(-n3cncn3)c([N+](=O)[O-])c2)CC1 (configuration not stated),"inconclusive [activator, partial curve, poor fit]"
5,Cn1c2ccccc2c(=O)c2ccc(-c3ccc4c(c3)OCO4)cc21,"inconclusive [activator, partial curve, poor fit]"
6,CC(C)c1onc(C(=O)Nc2ccc3c(c2)OCO3)c1[N+](=O)[O-],"inconclusive [activator, partial curve, poor fit]"
7,Cc1ccc(C(C)C)c(OCC#CCN2CCOCC2)c1,inactive
8,Cc1c(C(=O)N2CCOCC2)oc2ccc(S(=O)(=O)N3CCCC3)cc12,"inconclusive [activator, full curve, poor fit]"
9,COc1cc(/C=C/c2ccc3cccc(O)c3n2)c(Br)cc1O,"inconclusive [activator, partial curve, poor fit]"
10,CC1(C)CC(NC(=O)C(c2ccccc2)c2ccccc2)CC(C)(C)N1,"inconclusive [activator, single point]"
11,CCOc1ccc(CCNC(=O)C2CC(=O)N(C3CCCC3)C2)cc1OCC (configuration not stated),inactive
12,CCc1ccc(S(=O)(=O)c2ccc(-n3nc(C)cc3N)cc2)cc1,inactive
13,O=C(COC(=O)c1ccc(OC(F)F)cc1)NCCNC(=O)COC(=O)c1ccc(OC(F)F)cc1,"inconclusive [activator, single point]"
14,CCOc1ccc(CN2CCC(n3nccc3NC(=O)CCCc3ccccc3)CC2)cc1,inactive
15,O=C(Nc1nnc(SCc2ccccc2)s1)c1cccs1,"inconclusive [activator, full curve, poor fit]"
16,CC1CCCN(CCCNC(=O)c2ccc(CS(=O)(=O)c3c(Cl)cccc3Cl)o2)C1 (configuration not stated),"inconclusive [activator, single point]"
17,O=C(NCCc1ccc(Cl)cc1)c1ccc(Br)s1,"inconclusive [activator, partial curve, poor fit]"
18,CC(C)n1cnc2cc(NC(=O)c3ccco3)ccc21,"inconclusive [activator, full curve, poor fit]"
19,CCCN(CCC)CCCNC(=S)Nc1ccc2nc(N3CCN(C)CC3)cc(C)c2c1,inactive
20,O=S(=O)(Nc1ccc(-c2cn3ccsc3n2)cc1)c1ccc2c(c1)OCCO2,"inconclusive [activator, single point]"
21,O=C(/C=C/c1cccc(Cl)c1)Nc1ncccn1,"inconclusive [activator, full curve, poor fit]"
22,Cc1ccc(Cn2nc(C)cc2C(=O)Nc2ccccc2Cl)cc1,"inconclusive [activator, full curve, poor fit]"
23,O=C(Nc1ncc2c(n1)-c1ccccc1OC2)c1ccc(Cl)cc1Cl,inactive

row,Structure (SMILES),Potency
1,Cc1ccc(Nc2nc3ccccc3s2)c(C)c1,"inconclusive [activator, partial curve, poor fit]"
2,COc1cccc(NC(=S)N/N=C2\CC3CCC2(C)C3(C)C)c1 (configuration not stated),"inconclusive [activator, partial curve, poor fit]"
3,O=S1(=O)CCN2C=C(Cl)C=C(Cl)C2=N1,inactive
4,CC(O)CNc1nc2sc3c(c2c(=O)n1CCc1ccccc1)CCCCC3 (configuration not stated),"inconclusive [activator, single point]"
5,COc1ccc(/C=C/C(=O)Nc2cc(C(F)(F)F)ccc2Cl)cc1,inactive
6,Cc1cc(NC(=O)c2ccc(F)cc2F)n(-c2nc3ccccc3[nH]2)n1,inactive
7,O=C(N/N=C/c1cccc2ccccc12)c1ccncc1,inactive
8,COC(=O)c1cc2c(s1)-c1ccccc1CC2,"inconclusive [activator, single point]"
9,O=C(NCC1CCCO1)/C(=C/c1ccccc1F)NC(=O)c1ccccc1 (configuration not stated),inactive
10,CC1CCN(CCc2nc3cc(NS(=O)(=O)c4ccc(F)cc4)ccc3n2C)CC1,"inconclusive [activator, single point]"
11,Clc1ccc(C2=NN(c3ccccc3)C(c3ccco3)C2)cc1 (configuration not stated),inactive
12,COCCCNS(=O)(=O)c1ccc2c3c(cccc13)C(=O)S2,inactive
13,Oc1ccc(Oc2ccc(Oc3ccc(O)cc3)cc2)cc1,"inconclusive [activator, single point]"
14,CCN(CC)c1ccc2cc(C(=O)Nc3ccccn3)c(=O)oc2c1,"inconclusive [activator, partial curve, poor fit]"
15,C=CCNc1nc(N)c(C(=O)c2ccc3c(c2)OCO3)s1,"inconclusive [activator, partial curve, poor fit]"
16,CCCCN(C)C(=O)CCC(=O)Nc1ccc2nc(N3CCOCC3)cc(C)c2c1,"inconclusive [activator, full curve, poor fit]"
17,O=C(Nn1c(SCc2cccc([N+](=O)[O-])c2)nc2ccccc2c1=O)c1ccccc1,"inconclusive [activator, full curve, poor fit]"
18,O=C(NNC1=C(C(=O)C(F)(F)F)CCC1)c1cccc(O)c1,"inconclusive [activator, partial curve, poor fit]"
19,COC(=O)c1ccc(NC(=O)C(C)N2C(=O)c3ccccc3C2=O)cc1 (configuration not stated),"inconclusive [activator, full curve, poor fit]"
20,CCCOc1ccc(C2=NNC(c3cccs3)=Nc3ccc(OC)cc32)cc1,"inconclusive [activator, partial curve, poor fit]"
21,CC(C)c1ccc(/C=C2\SC(=S)N(CCC(=O)NCCCn3ccnc3)C2=O)cc1,"inconclusive [activator, partial curve, poor fit]"
22,O=C(Nc1ccc(N2CCCC2)cc1)c1cccc(-c2cc3ccccc3oc2=O)c1,inactive
23,Cc1cccc(C(=O)OCC(=O)N2CCCCCC2)c1,"inconclusive [activator, partial curve, poor fit]"

row,Structure (SMILES),Potency
1,O=C(Nc1ccc2c(c1)OCCO2)NC12CC3CC(CC(C3)C1)C2,"inconclusive [activator, partial curve, poor fit]"
2,CCN(Cc1ccccc1)C(=O)c1ccc(NC(=O)c2ccc(OC)cc2)cc1,inactive
3,CCCc1cc(C(=O)Nc2ccc(F)cc2F)no1,"inconclusive [activator, full curve, poor fit]"
4,COc1cc2c(cc1NC(=S)NC(=O)/C=C/c1ccco1)oc1ccccc12,inactive
5,O=C(CSc1nnc(-c2ccco2)n1Cc1ccccc1)c1ccc(F)cc1,"inconclusive [activator, partial curve, poor fit]"
6,O=C(NCCc1cccs1)C1CC(c2ccccc2[N+](=O)[O-])=NO1 (configuration not stated),"inconclusive [activator, partial curve, poor fit]"
7,CSc1ccc(OC2CCCCC2NS(=O)(=O)c2ccc(Cl)cc2)cc1 (configuration not stated),"inconclusive [activator, partial curve, poor fit]"
8,O=C(CSc1cn(Cc2ccccc2)c2ccccc12)Nc1nccs1,"inconclusive [activator, full curve, poor fit]"
9,COc1cccc(C=NCC(C)N=Cc2cccc(OC)c2O)c1O (configuration not stated),"inconclusive [activator, single point]"
10,CC(=O)Nc1ccc(C(=O)OCC(=O)N(c2ccccc2)C2CCS(=O)(=O)C2)cc1 (configuration not stated),inactive
11,CCc1ccc(C(=O)COC(=O)CNC(=O)C2CCCCC2)cc1,"inconclusive [activator, partial curve, poor fit]"
12,O=C(N/N=C/c1cccnc1)c1ccccc1OCc1cccc(Br)c1,inactive
13,Cc1c(NC(=O)C(=O)/C=C(/O)c2ccccc2)c(=O)n(-c2ccccc2)n1C,"inconclusive [activator, full curve, poor fit]"
14,Cc1nc2ccccc2c(=O)n1/N=C/c1ccccc1F,"inconclusive [activator, partial curve, poor fit]"
15,O=C(c1ccc(Cl)cc1)N1CCN(CCc2ccccn2)CC1,inactive
16,CCOc1ccc(/C=N/Nc2ccccn2)cc1,"inconclusive [activator, full curve, poor fit]"
17,CC1CCCN(C(=O)CNC(=O)c2cccs2)C1 (configuration not stated),"inconclusive [activator, single point]"
18,Cc1ccc(O)c(-c2cc(-c3ccccc3F)[nH]n2)c1,"inconclusive [activator, partial curve, poor fit]"
19,CC1CCN(CCCNC(=O)c2ccc(CS(=O)(=O)Cc3ccc(Cl)cc3)o2)CC1,"inconclusive [activator, partial curve, poor fit]"
20,COc1cc(NC(=O)CN2CCN(S(=O)(=O)c3ccc(C(C)C)cc3)CC2)cc(OC)c1,inactive
21,Clc1ccc(-c2nc(Cc3ccccc3Cl)no2)cc1,"inconclusive [activator, partial curve, poor fit]"
